Experimental data reported in publication PMC4336329 (PLoS ONE, 2015).
Hit rate of the full screen: of about 310,000 compounds, about 2,200 (0.71%) showed an effect of 50% or more. The effect is printed as a negative number. Some of the results follow.

These molecules were tested against human ether-à-go-go-related gene (hERG) potassium channel (human, UniProt Q12809) (assay: primary screen, population patch clamp on CHO cells stably expressing hERG).
Sequence of human ether-à-go-go-related gene (hERG) potassium channel (Q12809 whole entry, looked up): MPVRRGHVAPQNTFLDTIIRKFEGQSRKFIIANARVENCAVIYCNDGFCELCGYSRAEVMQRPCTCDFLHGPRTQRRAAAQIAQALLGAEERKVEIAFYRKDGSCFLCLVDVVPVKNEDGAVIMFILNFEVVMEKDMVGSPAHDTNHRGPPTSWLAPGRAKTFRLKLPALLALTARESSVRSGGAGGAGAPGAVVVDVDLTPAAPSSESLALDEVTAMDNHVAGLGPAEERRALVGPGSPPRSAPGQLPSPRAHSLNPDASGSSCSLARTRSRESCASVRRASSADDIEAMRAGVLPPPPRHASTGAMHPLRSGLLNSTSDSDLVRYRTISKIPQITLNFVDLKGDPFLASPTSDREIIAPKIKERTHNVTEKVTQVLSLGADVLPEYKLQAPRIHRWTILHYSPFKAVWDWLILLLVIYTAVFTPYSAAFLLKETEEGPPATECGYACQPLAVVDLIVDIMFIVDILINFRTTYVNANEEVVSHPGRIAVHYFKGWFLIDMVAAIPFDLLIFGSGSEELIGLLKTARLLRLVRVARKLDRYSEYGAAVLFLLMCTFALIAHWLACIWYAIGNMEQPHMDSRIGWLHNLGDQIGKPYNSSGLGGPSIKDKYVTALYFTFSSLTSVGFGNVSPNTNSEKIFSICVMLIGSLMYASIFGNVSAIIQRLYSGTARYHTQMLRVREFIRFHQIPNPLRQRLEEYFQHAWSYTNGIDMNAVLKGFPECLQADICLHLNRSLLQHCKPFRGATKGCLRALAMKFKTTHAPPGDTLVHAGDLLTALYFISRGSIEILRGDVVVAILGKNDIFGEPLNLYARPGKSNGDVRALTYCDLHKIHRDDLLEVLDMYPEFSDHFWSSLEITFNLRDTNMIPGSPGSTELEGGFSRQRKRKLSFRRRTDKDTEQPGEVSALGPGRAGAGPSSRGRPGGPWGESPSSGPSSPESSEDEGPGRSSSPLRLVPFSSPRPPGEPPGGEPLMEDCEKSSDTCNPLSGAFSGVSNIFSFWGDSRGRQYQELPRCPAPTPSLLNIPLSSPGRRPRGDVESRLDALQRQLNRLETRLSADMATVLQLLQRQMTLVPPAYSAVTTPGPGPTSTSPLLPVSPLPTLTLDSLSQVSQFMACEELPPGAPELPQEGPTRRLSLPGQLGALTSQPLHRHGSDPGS

Compound	hERG current change (%, negative = inhibition) at 1uM [%]
CCN(CCO)Cc1csc2cc(C)ccc12.Cl	-0.923
OCC1CCCN(c2nc(CN3CCCCC3)nc3scc(-c4ccccc4)c23)C1 (stereo not shown)	-16.5
CN(Cc1ccccc1)C(=O)c1nn2cccnc2c1Cl	13.2
Cc1ccccc1OCC(O)CNC1CCC(NCC(O)COc2ccccc2C)CC1 (stereo not shown)	7.91
CC1CCCCN1C(=O)COc1ccc(F)cc1 (stereo not shown)	7.67
COCCN(C(=S)Nc1ccccc1OC)C1CCN(C(C)C)CC1	-8.33
O=C(c1ccc(CS(=O)Cc2ccccc2Cl)o1)N1CCN(c2cccc(Cl)c2)CC1 (stereo not shown)	5.79
CS(=O)(=O)N(CC(=O)N1CCN(Cc2ccc3c(c2)OCO3)CC1)C1CCCCC1	4.35
COc1cccc(N=C2C(=O)N3CCCc4cccc2c43)c1	16.3
COc1ccc(NC2CCCN(C(=O)c3cccc(N4CCNC4=O)c3)C2)cc1 (stereo not shown)	16.3
O=C1C(=O)N(Cc2cccs2)c2ccccc21	12.9
COC(=O)c1c(Cl)c2n3ccccc3c(C)c(-c3ccccc3)c-2c1C(=O)OC	16.3
CCN(C(=S)NC(=O)C1CCCC1)C1CCCCC1	11.7
COc1ccc(-c2csc(NC(C)c3nc4cc(Cl)c(Cl)cc4n3CCCO)n2)cc1 (stereo not shown)	13.1
C#CCSc1nnc(CSc2nc3ccccc3s2)n1-c1ccccc1	16.5
CCOc1ccc(N(CC)C(=O)c2cn(CC)c(=O)c3cc(OC)c(OC)cc23)cc1	11
CC1CCCCN1C(=O)c1cc(S(=O)(=O)N2CCCCC2)c[nH]1 (stereo not shown)	15.8
O=C(c1cc2ccccc2o1)N1CCN(c2cccc(C(F)(F)F)c2)CC1	10.7
Cc1ccc(C(=O)N/C(=C/c2cccc([N+](=O)[O-])c2)C(=O)NC(C)C)cc1	-12.2
CC1CC/C(=C\c2ccc3c(c2)OCO3)C(=O)/C1=C/c1ccc2c(c1)OCO2 (stereo not shown)	12.3
COc1ccc(-c2c(C)nn(-c3ccccc3)c2NC(C)=O)cc1OC	14.8
O=C(CN1C(=O)c2ccccc2S1(=O)=O)c1ccc2c(c1)OCCO2	7.64

Compound	hERG current change (%, negative = inhibition) at 1uM [%]
CCc1cc(C(=O)NC(C)C2CCCO2)cs1 (stereo not shown)	29.8
COC(=O)c1c(C(=O)OC)c(-c2cccc(Cl)c2)n2c1CS(=O)(=O)C2	8.36
C=CCn1c(SCC(N)=O)nnc1-c1ccccc1O	-0.193
O=C(CCN=C1NS(=O)(=O)c2ccccc21)OCC(=O)c1ccc(F)cc1	26.6
O=C(Cc1nc(-c2ccc(Br)s2)cs1)NCCN1CCOCC1	7.47
O=C(Cn1ccc(NC(=O)OCc2ccccc2)nc1=O)NCCN1CCOCC1	15.1
CN(CCC#N)C(=O)COC(=O)c1ccc(Cl)c(S(=O)(=O)N(C)c2ccccc2)c1	-17.6
CCCC(=O)Nc1c(-c2ccc(C)cc2)c(=O)c2ccccc2n1C	5.38
CC1(C)Oc2ccc3ccc(=O)oc3c2/C(=C/NNC(N)=O)C1=O	4.1
Cc1cc(C)n2nc(SCCC(=O)NCc3ccccc3)nc2n1	8.12
COc1cccc2cc(-c3nc(-c4cccs4)cs3)c(=O)oc12	11.1
COCCNC(=O)CN1C(=O)CSc2ccc(S(=O)(=O)N3CCOCC3)cc21	19.1
COc1ccc(C(=O)c2ccc(OC)c(OC)c2)cc1	0.254
COc1cccc(NC(=S)N/N=C2\CC3CCC2(C)C3(C)C)c1 (stereo not shown)	-0.66
CCCC(=O)c1c[nH]c(C(=O)N2CCOCC2)c1	7.66
CNC(=O)COc1ccc(S(=O)(=O)Nc2ccc(C)cc2)cc1	9.74
CC(C)NC(=O)Cn1cc(C(=O)C(=O)N2CCOCC2)c2ccccc21	9.63
CCCCc1nnc(NC(=O)c2ccccc2OCc2c(C)noc2C)s1	-1.29
N#Cc1nc(Cc2cccc3ccccc23)oc1NCCN1CCOCC1	-11.2
Cc1ccc(S(=O)(=O)NCc2cccnc2)cc1C(=O)NC1CCCCC1	-1.3
CCN(CC)S(=O)(=O)c1ccc(OC)c(NC(=O)c2ccc(N3CCCC3=O)cc2)c1	10.3
Cc1cc(C)n(C(=O)c2cccc([N+](=O)[O-])c2C)n1	12

Compound	hERG current change (%, negative = inhibition) at 1uM [%]
Cc1nn(Cc2ccc(Cl)cc2)c(C)c1NC(=O)CSc1nc2c(c(C(F)(F)F)n1)CCc1ccccc1-2	0.446
COc1ccc(OC(C)C(=O)N(C)Cc2nc(-c3ccccc3)no2)cc1 (stereo not shown)	13
O=C(Nc1nc(-c2ccc(F)c(F)c2)cs1)c1ccc(OCC2CCCO2)cc1 (stereo not shown)	8
Cc1cc(=O)oc2c(C)c(OCC(=O)Nc3cccnc3)ccc12	5.29
COc1ccc(C2CC(c3ccccc3)=NN2C(=O)COC(=O)c2cc(S(=O)(=O)N3CCOCC3)ccc2Cl)cc1 (stereo not shown)	1.95
CCCCn1c2ccc(C)cc2c2nnc(SCCN3CCCCC3)nc21	-33.6
Cc1ccc(CS(=O)Cc2ccc(C(=O)NCc3ccccc3Br)o2)cc1 (stereo not shown)	17.4
O=C(CSc1nc2ccccc2s1)N1CCCCC1	4.67
Cc1ccccc1C(=O)/C(C#N)=N/Nc1c(C)n(C)n(-c2ccccc2)c1=O	9.32
CCc1ccc(N(C(=O)c2csnn2)C(C(=O)NC(C)(C)C)c2cccnc2)cc1 (stereo not shown)	9.51
COc1ccc(CNC(=O)COC(=O)CCCOc2ccc(Cl)cc2Cl)cc1	10.7
CC(=O)N1c2ccc(S(=O)(=O)N3CCC(C(=O)Nc4cccc(C)c4)CC3)cc2CC1C (stereo not shown)	16.4
COc1cccc(C(O)c2nc3ccccc3n2C(C)C)c1 (stereo not shown)	9.4
O=C(CSc1nnc2ccc(-c3cccnc3)nn12)Nc1ccccc1	-6.16
Clc1ccc(OCCn2ccnc2)cc1Cl.O=C(O)C(=O)O	11.1
CC(N=c1ccccn1C(=O)Nc1ccc(F)cc1)c1ccco1 (stereo not shown)	10
CC(C)C(NS(=O)(=O)c1cc(C(=O)O)ccc1Cl)C(=O)O (stereo not shown)	14.6
Cc1ccc(OCC(=O)NCCN2CCCC2)cc1.Cl	1.81
CCOC(=O)/C(C#N)=C/c1c(N2CCN(Cc3ccc4c(c3)OCO4)CC2)nc2c(C)cccn2c1=O	11.9
O=C(O)c1cccc(-n2c(/C=C/c3ccc([N+](=O)[O-])cc3)nc3ccccc3c2=O)c1	4.6
Cc1ccc(O)c(-c2cc(-c3ccccc3[N+](=O)[O-])[nH]n2)c1	10.4
CCNC(=O)c1ccc(C23CC4CC(CC(C4)C2)C3)o1	8.19

Compound	hERG current change (%, negative = inhibition) at 1uM [%]
CC1=C(C(=O)OC(C)C)C(c2cn(-c3ccccc3)nc2-c2cccs2)NC(=O)N1 (stereo not shown)	13.6
O=C(O)/C=C(\Oc1ccccc1)C1(O)CCCCC1	11.4
CCOC(=O)C1=C(COC(=O)/C=C/c2ccc(OC)c(OC)c2)NC(=O)NC1C (stereo not shown)	9.07
CCc1cccc(CC)c1NC(=O)COC(=O)CCc1cc(OC)c(OC)c(OC)c1	-0.422
CCc1ccc(C(=O)C(C)OC(=O)C2COc3ccccc3O2)cc1 (stereo not shown)	0.206
Cc1ccc(-n2c(=S)[nH]c3nc4c(cc3c2=O)COC(C)(C)C4)cc1	10.1
CCN(Cc1cnn(C)c1)C(=O)CC1C(=O)NCCN1Cc1cccc(OC)c1OC (stereo not shown)	1.98
CN(CC(=O)Nc1ccccc1Cl)C(=O)COC(=O)c1ccc(S(=O)(=O)C(F)F)cc1	-32.4
COc1ccc(CC(=O)Nc2cccc3c2CCCC3)cc1	13.5
CCCOc1ccc(S(=O)(=O)NCCCN2CCOCC2)c2ccccc12	-7.58
CC(C)C[C@H](NC(=O)c1nc[nH]c1C(=O)NCC(=O)OCc1ccccc1)C(=O)OCc1ccccc1	9.45
CCCOc1cccc(C(=O)Nc2nnn(CCC)n2)c1	7.37
COC(=O)c1cc2c(s1)=NC=NP=2(N1CCOCC1)N1CCOCC1	16.3
Cc1cc(C)cc(NC(=O)C2CCCN(c3nccc(C)n3)C2)c1 (stereo not shown)	5.05
CCN(CC)C(=O)c1sc(N)c(C(=O)OC(C)C)c1C	7.32
CCc1cc(Cl)c(OC)c(C(=O)NC[C@@H]2CCCN2CC)c1O.Cl	-18.7
CC1(C)Cc2c(c(-c3ccco3)[nH]c(=O)c2C#N)CS1	-3.55
O=c1c2ccccc2oc2cc(OCc3cccc(F)c3)cc(O)c12	12.3
Cc1ccc(C2CC(C(F)(F)F)n3ncc(C(=O)NCc4ccco4)c3N2)cc1 (stereo not shown)	1.05
O=C1N(Cc2ccccc2F)c2ccccc2C12OCCCO2	3.67
CC(Oc1ccccc1Cl)c1nnc(N)s1 (stereo not shown)	4.77
CC1(C)OC1COc1c2ccoc2cc2oc(=O)ccc12 (stereo not shown)	0.408
